Test results as given in ChEMBL document CHEMBL1143190, “Synthesis and structure-activity relationships of soluble 8-substituted 4-(2-chlorophenyl)-9-hydroxypyrrolo[3,4-c]carbazole-1,3(2H,6H)-diones as inhibitors of the Wee1 and Chk1 checkpoint kinases” (Bioorg Med Chem Lett, 2008).

Target: T1, Serine/threonine-protein kinase Chk1 (Homo sapiens, UniProt O14757)
T1 sequence (O14757 whole entry): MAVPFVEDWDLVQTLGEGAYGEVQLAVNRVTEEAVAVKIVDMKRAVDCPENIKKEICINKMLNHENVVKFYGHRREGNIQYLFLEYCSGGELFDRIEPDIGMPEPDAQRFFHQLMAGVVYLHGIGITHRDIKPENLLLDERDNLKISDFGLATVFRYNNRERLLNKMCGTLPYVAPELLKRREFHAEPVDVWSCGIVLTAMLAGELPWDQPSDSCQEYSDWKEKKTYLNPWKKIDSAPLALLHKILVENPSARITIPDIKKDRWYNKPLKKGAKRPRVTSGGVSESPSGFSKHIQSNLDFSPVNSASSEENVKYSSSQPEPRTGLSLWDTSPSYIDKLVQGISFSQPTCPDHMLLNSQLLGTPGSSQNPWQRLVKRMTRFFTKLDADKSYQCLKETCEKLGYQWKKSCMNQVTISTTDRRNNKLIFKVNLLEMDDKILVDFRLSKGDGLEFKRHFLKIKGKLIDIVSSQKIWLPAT

Structure (SMILES)	IC50 [µM]
O=C1NC(=O)c2c1c(-c1ccccc1Cl)cc1[nH]c3cc(OCCCN4CCOCC4)c(O)cc3c21	0.041
O=C1NC(=O)c2c1c(-c1ccccc1Cl)cc1c2c2cc(O)c(CCCCN3CCOCC3)cc2n1CCO	0.022
O=C1NC(=O)c2c1c(-c1ccccc1Cl)cc1[nH]c3cc(CCCCN4CCOCC4)c(O)cc3c21	0.071
CN(C)CCCCc1cc2c(cc1O)c1c3c(c(-c4ccccc4Cl)cc1n2C)C(=O)NC3=O	0.102
Cn1c2cc(OCCCN3CCOCC3)c(O)cc2c2c3c(c(-c4ccccc4Cl)cc21)C(=O)NC3=O	0.374
O=C1NC(=O)c2c1c(-c1ccccc1Cl)cc1c2c2cc(O)c(OCCCN3CCOCC3)cc2n1CCO	0.29
CN(C)CCCCc1cc2[nH]c3cc(-c4ccccc4Cl)c4c(c3c2cc1O)C(=O)NC4=O	0.055
CN(C)CCCOc1cc2[nH]c3cc(-c4ccccc4Cl)c4c(c3c2cc1O)C(=O)NC4=O	0.003
Cn1c2cc(CCCCN3CCOCC3)c(O)cc2c2c3c(c(-c4ccccc4Cl)cc21)C(=O)NC3=O	0.074

Results, then the molecule that gave them:

IC50 [µM]	Structure (SMILES)
0.004	Cn1c2cc(CCCCN3CCCC3)c(O)cc2c2c3c(c(-c4ccccc4Cl)cc21)C(=O)NC3=O
0.022	O=C1NC(=O)c2c1c(-c1ccccc1Cl)cc1[nH]c3cc(CCCCN4CCCC4)c(O)cc3c21
0.242	Cn1c2cc(C(=O)NCCN3CCCC3)c(O)cc2c2c3c(c(-c4ccccc4Cl)cc21)C(=O)NC3=O
0.134	CN(C)CCCOc1cc2c(cc1O)c1c3c(c(-c4ccccc4Cl)cc1n2CCO)C(=O)NC3=O
0.063	O=C1NC(=O)c2c1c(-c1ccccc1Cl)cc1c2c2cc(O)c(OCCCN3CCCC3)cc2n1CCO
0.24	Cn1c2cc(S(=O)(=O)CCCN3CCCC3)c(O)cc2c2c3c(c(-c4ccccc4Cl)cc21)C(=O)NC3=O
0.044	Cn1c2cc(SCCCN3CCCC3)c(O)cc2c2c3c(c(-c4ccccc4Cl)cc21)C(=O)NC3=O
0.057	Cn1c2cc(S(=O)(=O)NCCN3CCCC3)c(O)cc2c2c3c(c(-c4ccccc4Cl)cc21)C(=O)NC3=O
0.01	O=C1NC(=O)c2c1c(-c1ccccc1Cl)cc1[nH]c3cc(OCCCN4CCCC4)c(O)cc3c21
0.014	O=C1NC(=O)c2c1c(-c1ccccc1Cl)cc1c2c2cc(O)c(CCCCN3CCCC3)cc2n1CCO
